From a compilation of properties of binary mixtures (doi:10.1021/acs.jced.3c00239)
Some of these densities may be calculated back from excess volumes.

Experiment: xn = mol fraction of the nth substance listed
Conditions: 100 kPa

CCCCO + CC[n+]1ccn(C)c1.N#C[N-]C#N
x2 = 0
Conditions	mass density [kg/m3]
298.15 K	805.8
303.15 K	801.9
308.15 K	798.1
313.15 K	794.3
318.15 K	790.2
323.15 K	786.3

CC[n+]1ccn(C)c1.N#C[N-]C#N + CCCCO
mass density [kg/m3]
Conditions	x1 = 0.1015	x1 = 0.2007	x1 = 0.3006	x1 = 0.4008	x1 = 0.5021	x1 = 0.6014	x1 = 0.7012	x1 = 0.8016	x1 = 0.9012	x1 = 1
298.15 K	894.5	952	–	1023.9	1048.6	1067.6	1083.7	1094.1	1098.9	1103
303.15 K	890.7	948.2	991.4	1020	1044.7	1063.7	1079.9	1090.3	–	1099.7
308.15 K	886.8	944.3	–	–	1040.9	1059.9	–	–	1091.2	1096.4
313.15 K	882.9	–	–	1012.2	1037	1056	1072.1	1082.5	1087.3	1093.1
318.15 K	878.9	936.4	979.7	1008.3	1033	–	1068.1	1078.5	1083.4	1089.8
323.15 K	875	–	975.7	–	1029	1048	1064.2	1074.6	1079.4	1086.4
